A word on the Kd: it is the free concentration of one partner at which half of the binding sites on the other are occupied at equilibrium, for simple one-to-one binding. The low end stands for tighter binding, the high end for weaker binding. Usually koff stands for a measure of how fast the partners let go of each other. Usually kon stands for the second-order rate constant of association.

Common to all, as to experiment: SPR (Biacore); Fc fusion captured by anti-Fc antibody, ligand injected
Background: In SPR one partner is held on a chip, and binding of the other changes the refractive index at the surface.

The target of experiment [1] is T1, activin A (UniProt P08476 311-426).
T1 sequence (looked up): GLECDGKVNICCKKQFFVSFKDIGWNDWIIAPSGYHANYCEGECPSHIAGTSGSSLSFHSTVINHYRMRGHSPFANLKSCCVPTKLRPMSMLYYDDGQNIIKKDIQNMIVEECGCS
On the procedure: (§1) A Biacore™-based binding assay was used to compare ligand binding selectivity of the single-arm ActRIIA heterodimer Fc fusions described above with that of an ActRIIA homodimer Fc fusion. The single-arm ActRIIA heterodimer Fc fusions and ActRIIA homodimer Fc fusions were independently captured onto the system using an anti-Fc antibody. Ligands were injected and allowed to flow over the captured receptor protein.

Experiment [2] addresses T2, activin B (UniProt P09529 293-407).
T2 sequence (looked up): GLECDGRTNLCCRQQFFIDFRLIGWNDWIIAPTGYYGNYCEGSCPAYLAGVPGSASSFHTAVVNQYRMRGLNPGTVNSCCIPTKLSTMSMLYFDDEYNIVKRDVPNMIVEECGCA
The protocol:
as §1

For experiment [3], the target named is T3, BMP5 (UniProt P22003 317-454, limits assumed).
T3 sequence (looked up): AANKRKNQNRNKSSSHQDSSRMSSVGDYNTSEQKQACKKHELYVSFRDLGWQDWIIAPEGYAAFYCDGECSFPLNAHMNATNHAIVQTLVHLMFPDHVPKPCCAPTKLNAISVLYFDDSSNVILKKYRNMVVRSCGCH
On the procedure:
as §1

B1: ActRIIA homodimer Fc fusion (Fc fusion)
chain: not shown
notes: Comparator; also called homodimeric ActRIIA Fc fusion; not shown: linker and Fc domain of the homodimer are not described
B1: the figures for the dissociation constant (Kd) in experiment [1], in experiment [2] and in experiment [3] were 0.045 nM, 0.025 nM and 1.1 nM, respectively. Moreover, the figures for the koff in experiment [1], in experiment [2] and in experiment [3] were 0.00062 s⁻¹, 0.0002 s⁻¹ and 0.0045 s⁻¹, respectively. The kon in experiment [1] was 1.4e+07 M⁻¹ s⁻¹; in experiment [2], 7.9e+06 M⁻¹ s⁻¹; in experiment [3], 4e+06 M⁻¹ s⁻¹.

The record behind these values is patent US20230190875A1 (ACCELERON PHARMA, published 2023).
